According to PubChem BioAssay AID1956 (SRMLSC, 2009):
Screen size: about 220,000 compounds; about 10 (0.005%) were called active. Inconclusive results, whose numbers are uncertain, are shown with a selection of clear calls. Rule as the data show it: active = maximum fold increase above about 1.5; inconclusive = no clear call, values can overlap the other calls; inactive = below that; tested in PC3 cells.

Test: compounds boosting herpes simplex virus growth – fold increase, host cell viability (AID 1956)
Conditions: HSV replication augmentation in cells; at 25 µM unless noted

| Structure (SMILES) | maximum fold increase |
| --- | --- |
| CCOC(=O)CC1C(=O)NCCN1c1nc2c(C)cccn2c(=O)c1/C=C1\SC(=S)N(C(C)CC)C1=O (stereo not drawn) | inconclusive |
| CNC(=S)NNC(=O)c1oc2nc(-c3ccccc3)cc(-c3ccco3)c2c1N | inconclusive |
| N#Cc1ccc(-c2cccnc2)nc1SCC(=O)c1ccccc1 | inconclusive |
| Cc1onc(-c2ccc(Cl)cc2Cl)c1-c1csc(N/N=C/c2ccccc2Cl)n1 | inactive |
| Cc1ccc(C2NC(=O)c3c(sc4c3CCN(C)C4)N2)s1 (stereo not drawn) | inconclusive |
| Cc1[nH]nc(NNC(=O)c2ccccc2)c1[N+](=O)[O-] | inconclusive |
| Cc1cccc2cc3c(N)c(C(=O)N4CCCc5ccccc54)sc3nc12 | inconclusive |
| Cc1cc(C(=O)NNC(=S)NC(C)c2ccccc2)c2ccccc2n1 (stereo not drawn) | inconclusive |
| Cc1cc(C)nc(NN2C(=O)/C(=C/c3ccc(O)cc3)SC2=S)n1 | inconclusive |
| O=C(C1=C(O)C(=O)N(c2nccs2)C1c1ccccc1)c1cc2ccccc2o1 (stereo not drawn) | inconclusive |
| CCC1=Nc2cc(C(=O)NCc3cccnc3)ccc2Sc2ccc(C)cc21 | inactive |
| CCCc1nnc(NC(=O)c2cc3ccccc3oc2=O)s1 | inactive |
| O=C(N/N=C/c1sc(N2CCCCC2)nc1-c1cccs1)c1cccnc1 | inconclusive |
| O=c1c[n+]([O-])c2ccccc2n1OCc1ccccn1 | inconclusive |
| CC(=O)c1cc(-c2ccccc2)[nH]c1N1CCCC1 | inconclusive |
| O=C(COC(=O)CCc1c[nH]c2ccccc12)NC1CCS(=O)(=O)C1 (stereo not drawn) | inactive |
| COCCN(C(=O)CN1CCCc2ccccc21)c1c(N)n(Cc2ccccc2)c(=O)[nH]c1=O | inconclusive |
| COC(=O)c1ccc(-c2ccco2)n1Cc1nc(-c2ccc(OC)c(OC)c2)oc1C | inconclusive |
| Cc1n[nH]c(C)c1S(=O)(=O)N1CCCC(C(=O)Nc2nccs2)C1 (stereo not drawn) | inconclusive |
| CCOC(=O)c1ccccc1N1C(=O)C2Sc3[nH]c(=O)sc3C(/C=C/c3ccccc3)C2C1=O (stereo not drawn) | inconclusive |
| COc1ccc(O)c(/C=N/NC(=O)c2ccc(CSc3nc(C)cc(C)n3)cc2)c1 | inactive |

| Structure (SMILES) | maximum fold increase |
| --- | --- |
| O=C(/C=C/c1cc[n+](CC(=O)c2ccc3cccc4c3c2CC4)cc1)c1ccc2cccc3c2c1CC3 | inactive |
| O=C(NCCOc1ccccc1F)Nc1ccc(Br)cc1 | inconclusive |
| COc1cc(/C=C2\SC(=N)N(c3ccc4c(c3)OCO4)C2=O)cc(OC)c1O | inconclusive |
| O=C1/C(=C/c2ccc(O)c(O)c2)Oc2cc(O)ccc21 | inconclusive |
| CCOc1ccc(N(CC(=O)N/N=C/c2cc([N+](=O)[O-])ccc2Cl)S(C)(=O)=O)cc1 | inactive |
| S=c1nccc(-c2ccc(Cl)cc2)[nH]1 | inactive |
| O=C(/C=C/c1ccco1)N1CCN(S(=O)(=O)c2cccs2)CC1 | inconclusive |
| CCN(CC)C(=O)CSc1nc(O)c(Cc2ccccc2)c(=O)n1-c1ccccc1 | inactive |
| Cc1nc2ccc(S(=O)(=O)N(C)CC(=O)Nc3ccccc3F)cc2s1 | inactive |
| CN1C(=O)CC(c2cn(Cc3ccccc3)c3ccccc23)C1=O (stereo not drawn) | inconclusive |
| COc1ccc(C2=CC(c3cccc(OC)c3)n3nnnc3N2)cc1 (stereo not drawn) | inconclusive |
| CCN(CC)S(=O)(=O)c1ccc(N=Nc2c(C)[nH]n(C(N)=S)c2=O)cc1 | inconclusive |
| Cc1ccc(S(=O)(=O)Nc2nc3ccccc3nc2Nc2cccc(S(=O)(=O)N3CCCC3)c2)cc1 | inconclusive |
| CCCn1c(NC(=O)c2ccccc2)nc2ccccc21 | inactive |
| CCOc1ccc(C2C=C(c3ccc(C)cc3)Nc3ncnn32)cc1 (stereo not drawn) | inconclusive |
| O=C(O)c1ccccc1-c1ccc(/C=C/c2cc(C(F)(F)F)[nH]c(=O)n2)o1 | inconclusive |
| COc1ccccc1Cn1c(-c2ccco2)nc2nc3ccccc3nc21 | inconclusive |
| CC(C)c1cc(C(=O)N/N=C/C=C/c2ccccc2)n[nH]1 | inactive |
| Cc1ccccc1N1C(=O)C(Cc2ccc(F)cc2)S/C1=C(\C#N)C(N)=O (stereo not drawn) | inconclusive |
| O=c1c(/C=C(\O)c2ccc(F)cc2)nc2ccccc2n1-c1ccccc1 | inconclusive |
| Oc1ccc(-c2onc3ccc(Cl)cc23)cc1 | inconclusive |

| Structure (SMILES) | maximum fold increase |
| --- | --- |
| CN(C)c1ccc(/C=C2\NC(=S)N(Cc3ccccc3)C2=O)cc1 | inconclusive |
| O=C(Nc1ccccc1)c1cccc(-c2nnc(-c3ccccc3)o2)c1 | inconclusive |
| O=C(O)c1cc(-c2ccc(/C=N/Nc3ccc([N+](=O)[O-])cn3)o2)ccc1Cl | inconclusive |
| Cc1ccc(S(=O)(=O)Cn2nnnc2C(C)N2CCN(C(=O)c3ccco3)CC2)cc1 (stereo not drawn) | inactive |
| COCc1cc(C)nc(SCC[N+](C)(C)CC(=O)Nc2cccc(C(F)(F)F)c2)c1C#N | inactive |
| COc1ccc(C)cc1-n1c(SCC(=O)Nc2cc(C)on2)nc2sc(C)c(C)c2c1=O | inconclusive |
| CCN1/C(=C\C(C)=O)Sc2ccc(OC)cc21 | inactive |
| Nc1ccc(-n2c(N)c(C(=O)NCc3ccc4c(c3)OCO4)c3nc4ccccc4nc32)cc1 | inconclusive |
| Nc1ccc(N2CCN(C(=O)c3cccs3)CC2)cc1 | inconclusive |
| CC(C)Sc1ccc(C(=O)Nc2ccc(F)cc2F)cn1 | inactive |
| N#C/C(=C\c1ccc(N2CCCCC2)o1)C(N)=O | inconclusive |
| S=C(Nc1ccc2nc(-c3ccccn3)c(-c3ccccn3)nc2c1)N1CCCCC1 | inconclusive |
| CCCCN(C(=O)CC(c1ccccc1)c1ccccc1)c1c(N)n(CCC)c(=O)[nH]c1=O | inconclusive |
| CC1=CC(=NOC(=O)/C=C/c2ccccc2)C=C(C)C1=O | inconclusive |
| CCOc1ccc2[nH]c(=O)c(CN(CCO)C(=O)c3ccc(Br)cc3)cc2c1 | inconclusive |
| O=C(CSc1ncccn1)Nc1ncc(C(F)(F)F)cc1Cl | inconclusive |
| COc1ccccc1C(=O)C1CCCN(C(=O)c2snnc2C)C1 (stereo not drawn) | inactive |
| Cc1ccc(NC(=S)NNC(=S)NCc2ccccc2)cc1 | inconclusive |
| COc1ccc(C2NC3=C(CCCC3)C(C#N)(C#N)C2(C#N)C#N)cc1 (stereo not drawn) | inconclusive |
| CCCCN(C)CC(O)Cn1cc(/C=C/C(=O)c2cccs2)c2ccccc21 (stereo not drawn) | inactive |
| COCCCNCCOc1ccc(C)cc1[N+](=O)[O-] | inactive |
